We go through 23 molecules from the supplement of paper PMC12632987.

Over roughly 2,300 sequences, “median log2 fold change of GCK-ALFA target abundance (FLAG IP / Myc IP barcode read proportion)” has its median near 0.095; the lowest 2% begin near -0.47. The list shows a part of the results.

B1: LC3A_free_39_2211 (protein)
chain: SEEELEELLKKVAEESGLDYEYIRERVEEIRRVAGLSLEQMLELVKAILEAVREGADAEEILEEVLALAKELVAAGKSPEEIAEALLEEVEDFRNLIPLD
B2: LC3A_37_1342 (protein)
chain: MEKDIAVGVANTEEGVELLKKELERLKKERNWETKVIRLPETATETELVEAAEAEMERIAAEIAKKEGMKAKVSSIIEIEKNPKDGKPIVIVYALVTLTP
B3: LC3A_28_1037 (protein)
chain: DELRRRAEEAVKEAEEQAKKGEEAVVTIKVGKLPTEEAKRIVREALERLIKISKKYGNVKISVVIDVDGDQELVDAIIDVAEEAEKKNPNLTVIIALSEE
B4: LC3A_28_643 (protein)
chain: SEIEEQIKEALEKAKEAREKGEPTVIELTLDGNATQEDVEKLIKALKEIAEILESVPGSAIIINVTGNVKQEHIDKIADAAEEIEKKYPNVTVIIALEEK
B5: LC3A_3_1893 (protein)
chain: MEKEVEELVKEMKEKGKSEETIELFKKVIELLKKRGYEEAAKTLIEEMRKLLDAPDEIVLDFLKEVLKVLEEEDLSEEELIEKIKELATLAKNEAEIEEL
B6: LC3A_28_934 (protein)
chain: MTVEERIKKALEEAEKAAKAGEPVVITIKVTSKDTQEEIDKLIKTIKEIAEILKNVKGAAIIVDVDAGVPQERIDKIADTLEEIEKKYPNINAILALDED
B7: LC3A_3_1713 (protein)
chain: MEELLARAREILEAQGRSEETIEAALAALKALLERGYEEAAETLLELLEEMADLSDEILLAFFEDVKEFVETEDASEEEVIEFIKEEARTARSEQEIEEL
B8: LC3A_3_1580 (protein)
chain: MEEFIKEARKRLKEAGFSEEVIEKAEEALKALLERGAEEAAKELLEGLLRLKDAPEEDLLAALEEVKAVAEDESLTKEEILKEVKEILSTLESAKEIIEL
B9: LC3A_free_39_2251 (protein)
chain: SAAELAAALERAEALAATLDPETAAAFRELLELVKDNPEAVRLVTDGVEELRAEGGDVLAFLREATALVRELQAAGKSEEEIVRELRELRDDALNLIPLD
B10: LC3A_132_244 (protein)
chain: MEEKKEKLRKELKKLLEELKKNIDNLEKVKELVKKIEKLLEEAKKELSPEDALEIFEEVADRLDEIAEEAEAAGKEEVARIVENASMYADGLAIEQELKL
B11: LC3A_28_789 (protein)
chain: SALKENADAALEEAKAAAAAGVSTVITIKVTGDATQEDIDYVIEKLEEIAEILKDIKDQAIIIDVDAGVSQEHLDKLAKAAEEIEKKYPNVTVIIALEER
B12: LC3A_127_185 (protein)
chain: KKEELAEKLIELVEEAIENLQKPDFNEEEIKKLLEEAKKLAEELVKLDPSYKPVLEDIEKAIKLFEELLKAPESEKESLREHLIMLLDGIRIEIESLLLK
B13: LC3A_28_697 (protein)
chain: SATDKELEKARAEAEAAIARGEDALITLTIRPDTTMEEVKKILEEIEELARRMSEVGKLYVVVDVESGVKQENLDYIADKLDELEEEIPNLTSIIALDEE
B14: LC3A_3_1812 (protein)
chain: MEERLERALEELREAGASEETLEAVREAVERLLEKGYEEAAETFLELMLELKDLPSELLLELAEEVLELVETSDLSEEEITEKIKEIAATVRHEGEIIEL
B15: LC3A_3_1616 (protein)
chain: IEELLEKAIKTLKEAGKPEEVLELLKETVEKLLEKGYEEAAKTLLEEVIELADLSSEILLDLLKEVLELVETEDLSEEELTEKIKELARIARSEEEIIEL
B16: LC3A_3_1785 (protein)
chain: MEERREELLERLREAGHSEETIEAAREALELLIERGYEEAFETFVEELEELIDLPDEILLDMLEEVLELLKTHDLSEEEVKERIEELAELARNEGEIEEL
B17: LC3A_28_1282 (protein)
chain: SELDESIAAALAAARAAAAAGESAVITIRVPGGATEEEIEKVIEALREIAAILADVPDQAIVIDVDSGVAEEHIDKLADAAEEIEKEHPNVTVIIALDED
B18: LC3A_3_1396 (protein)
chain: FEEIRKEAIAFLKEKGKSEEVIEATEKVLDLLEERGYEEAAKEFLEELKKMKDLSDELLLDFLEDVENYLLENDDNEEEVIKYIKEEATIALNESEIEEL
B19: LC3A_28_636 (protein)
chain: SAIDKEIEKFKAEAKAAAAAGEEAVLTLKVGGDTDEEDVEKIIKTMEEVAEITKDLPRTTIIVDIDGGVKQELIDKLMDAAEEIEKKYPNVTVIFALDEE
B20: LC3A_free_46_2347 (protein)
chain: YKAEIDIDLLAEDEETLKKAVEEIVEAAKKIAKKYNLKVNIEVEIEKLEDGSYYARIKITLEGETKEDVEAAVNELIDEIDKIAKKYNVAAIISYEIIKT
B21: LC3A_28_1319 (protein)
chain: SSVEKELAKAEKQAEEQAAKGEDITITVKVSGKTTLEEAKKLMEGLEKIAEKYAPERKVNIIIDLDGKVKQEVIDLIAKKAEEIEKKYPNVTVIIALDEE
B22: LC3A_free_39_2203 (protein)
chain: SEEEEKEYEEELLKLAAEAGEEALKAAKELLKLVKGNTELVKTILEEVKRAVEEGADVLELLKRLLKLVKELQAQGKSEEEIIEALRAEADVIINLIPIE
B23: LC3A_free_46_2337 (protein)
chain: YRVTVTVDTLAAPKEKIEAFIADLTARAKAIAAELGAEIEIKVEIEKEEDGTYSATVTITITVETEEKAKQAAQKLLDAVDELDEKYGIVGLISSEIEKL

For the test, the target named is MAP1LC3A, Q9H492. Put plainly: median log2 fold change of GCK-ALFA target abundance (FLAG IP / Myc IP barcode read proportion) (log2 ratio); each designed protein is fused to an ALFA-tag nanobody in HEK293 cells to bring the named protein to FLAG-tagged glucokinase (GCK); Myc marks an untargeted standard; higher = target protein stabilised (more abundant). The settings on record: target protein: 3xFLAG-MCP-GCK-ALFA reporter; HEK293 landing pad (RPLP). The method in brief:
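An ALFA-nanobody-fused binder library was recombined into HEK293 landing-pad cells and induced with 2 μg mL^−1 doxycycline. Cells were transfected with a plasmid expressing a FLAG-tagged target and a Myc-tagged standard. After 48 h, lysates underwent anti-FLAG and anti-Myc immunoprecipitation, and circular RNA barcodes were reverse transcribed, amplified and sequenced. Target abundance is the per-binder median log2 ratio of FLAG to Myc barcode read proportions. Barcodes needed ≥10^−7 proportion in both replicates, binders ≥3 barcodes per replicate, and a 10^−6 pseudocount was added; the two replicates were pooled.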
Take B1: the “median log2 fold change” value is -0.819.
In the case of B2 it was 0.00352.
For B3 the value was -0.36.
Take B4: the “median log2 fold change” value stood at 0.105.
For the molecule B5, the “median log2 fold change” value worked out at 0.29.
Take B6: the “median log2 fold change” value amounted to 0.252.
B7: the “median log2 fold change” value turned out to be 0.0461.
In the case of B8 it was 0.227.
In the case of B9 it was 0.276.
For B10 the value was -0.406; for B11, 0.14; for B12, 0.176.
On to B13, for which the “median log2 fold change” value was found to be 0.0944.
For B14 the value was 0.126.
In the case of B15 it was 0.0587; in that of B16, 0.0238; in that of B17, -0.339.
In the case of B18 it was 0.0883; in that of B19, -0.361.
Consider B20, for which the “median log2 fold change” value is -0.556.
As to B21, the “median log2 fold change” value came to 0.113.
B22: the “median log2 fold change” value was 0.201.
Take B23: the “median log2 fold change” value amounted to 0.135.
